We go through 90 compounds from article PMC4336329 (PLoS ONE, 2015).

The structures appear in SMILES notation. Hit rate of the full screen: of about 310,000 compounds, about 2,200 (0.71%) showed an effect of 50% or more. The effect is printed as a negative number. This is one part of the list.

Sequence of human ether-à-go-go-related gene (hERG) potassium channel (Q12809 whole entry, looked up): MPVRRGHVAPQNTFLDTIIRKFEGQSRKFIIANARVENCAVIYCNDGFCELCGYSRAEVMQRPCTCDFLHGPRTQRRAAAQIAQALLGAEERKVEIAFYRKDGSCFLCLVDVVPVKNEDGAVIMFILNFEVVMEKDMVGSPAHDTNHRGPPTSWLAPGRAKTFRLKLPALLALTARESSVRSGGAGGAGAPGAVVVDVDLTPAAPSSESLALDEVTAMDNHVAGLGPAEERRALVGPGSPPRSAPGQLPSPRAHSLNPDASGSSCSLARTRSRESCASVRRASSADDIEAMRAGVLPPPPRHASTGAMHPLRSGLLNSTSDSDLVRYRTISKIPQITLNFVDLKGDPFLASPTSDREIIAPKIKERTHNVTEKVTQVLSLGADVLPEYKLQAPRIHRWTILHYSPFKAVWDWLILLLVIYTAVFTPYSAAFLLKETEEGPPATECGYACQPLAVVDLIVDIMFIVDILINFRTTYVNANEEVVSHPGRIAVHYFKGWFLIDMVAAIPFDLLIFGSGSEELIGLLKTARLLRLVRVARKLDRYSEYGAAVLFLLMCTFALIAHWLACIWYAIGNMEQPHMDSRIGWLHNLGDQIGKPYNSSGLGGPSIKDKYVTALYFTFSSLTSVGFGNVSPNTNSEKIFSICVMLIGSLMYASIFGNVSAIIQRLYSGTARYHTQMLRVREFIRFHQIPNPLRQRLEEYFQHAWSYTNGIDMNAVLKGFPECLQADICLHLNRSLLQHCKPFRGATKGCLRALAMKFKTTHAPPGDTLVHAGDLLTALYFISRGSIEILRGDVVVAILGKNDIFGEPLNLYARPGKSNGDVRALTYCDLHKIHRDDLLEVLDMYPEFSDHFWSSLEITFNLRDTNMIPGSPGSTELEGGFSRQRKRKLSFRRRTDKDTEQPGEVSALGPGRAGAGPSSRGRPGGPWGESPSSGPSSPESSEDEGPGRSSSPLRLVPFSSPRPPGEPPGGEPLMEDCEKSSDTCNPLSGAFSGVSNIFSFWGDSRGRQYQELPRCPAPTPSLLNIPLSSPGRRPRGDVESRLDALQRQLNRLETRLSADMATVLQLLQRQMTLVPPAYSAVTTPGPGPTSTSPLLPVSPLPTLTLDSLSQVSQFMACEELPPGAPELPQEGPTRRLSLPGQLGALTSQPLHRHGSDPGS

The test addresses human ether-à-go-go-related gene (hERG) potassium channel (human, UniProt Q12809). Put plainly: primary screen, population patch clamp on CHO cells stably expressing hERG.
Consider `O=C(NCCc1ccccc1F)C1CCC(=O)N(Cc2ccc(Cl)cc2)C1` (stereo not drawn), for which the “hERG current change (%, negative = inhibition) at 1uM” value is on record as -1.6%.
As to `Cc1ccc(-c2nc(NCCCO)c3ccccc3n2)cc1`, the “hERG current change (%, negative = inhibition) at 1uM” value is listed as 2.19%.
The figure for `O=C1Nc2cc(C(=O)N3CCC4(CC3)OCCO4)ccc2NC1CSCc1cccc(F)c1` (stereo not drawn) is 7.35%.
For `Cc1cc(C)nc(N2CCN(C(=O)CCC(=O)Nc3nnc(C(C)C)s3)CC2)n1` the value was 15%; for `Cc1cccc(OCC(=O)Nc2ccc3c(c2)C(=O)NC3=O)c1`, 3.6%.
For `COc1cccc(-c2nc(NC(C)(C)C)c3ccccc3n2)c1O` the value was 8.34%.
For `CC(C)(C)c1ccccc1OCC(=O)NCc1ccccc1`, the “hERG current change (%, negative = inhibition) at 1uM” value is 11.5%.
As to `O=C1NC(Cc2c[nH]c3ccccc23)C(=O)N1Cc1ccccc1` (stereo not drawn), the “hERG current change (%, negative = inhibition) at 1uM” value came out at 10.2%.
Regarding `Cc1ccnc(NC(=O)CCC(=O)N(CC(=O)NCc2ccccc2)Cc2ccco2)c1`, the “hERG current change (%, negative = inhibition) at 1uM” value was -0.181%.
The figure for `CCCCNC(=O)N1CCN(Cc2cccc(F)c2)CC1` is 10.5%; for `CCc1cc(C(=O)NNC(=S)NCc2ccccc2)cs1` it is -3.36%; for `CC(=O)N(c1nc(CCl)cs1)c1cccc(C)c1C` it is 2.77%.
As for `OCC[C@H]1C[C@@H](O)[C@H](O)[C@@]2(Cc3ccccc3CCO2)O1`, the “hERG current change (%, negative = inhibition) at 1uM” value came out at 9.28%.
For the compound `COc1ccc(S(=O)(=O)Oc2ccccc2C(=S)N2CCOCC2)cc1`, the “hERG current change (%, negative = inhibition) at 1uM” value turned out to be 13.5%.
The figure for `Cc1ccc2[nH]c(-c3ccccc3)cc(=O)c2c1` is 15.1%; for `CC(NC(=O)c1ccco1)c1nc(-c2ccccc2)no1` (stereo not drawn) it is 11.9%.
The figure for `COc1ccc2[nH]c3c(N4CCc5ccccc5C4)ncnc3c2c1` is 13%.
As for `O=C(Nc1ccccc1C(=O)N1CCCCC1)c1cccs1`, the “hERG current change (%, negative = inhibition) at 1uM” value stood at 4.05%.
The figure for `Cc1ccc(-c2csc(NC(=O)c3cc([N+](=O)[O-])ccc3N3CCOCC3)n2)cc1` is 9.16%; for `O=C1OC(c2ccccc2)/C(=C(/O)c2ccc(Cl)cc2)C1=O` (stereo not drawn) it is 18%.
The figure for `O=C(Nc1ccccn1)C12CC3CC(C1)CC(C(=O)Nc1ccccn1)(C3)C2` is 7.16%.
`CC(=O)Oc1ccc(/C=C2/Oc3ccccc3C2=O)cc1`: the “hERG current change (%, negative = inhibition) at 1uM” value came to 14.5%.
As to `O=C1NCC(=O)N2C(c3ccccc3)c3[nH]c4ccccc4c3C[C@@H]12` (stereo partly drawn), the “hERG current change (%, negative = inhibition) at 1uM” value is 9.59%.
The figure for `O=C(NCCCN1CCOCC1)c1cccc(NS(=O)(=O)c2ccc(Br)cc2)c1` is 10.7%.
The figure for `CSc1ccccc1NC(=O)CN(C)CC(=O)c1c(C)[nH]c2ccccc12` is 17.7%; for `Cc1ccccc1-c1nnc(-c2ccc(Br)cc2)o1` it is 11%.
On to `CCOc1cc(/C=N/O)ccc1OCc1ccccc1F`, for which the “hERG current change (%, negative = inhibition) at 1uM” value turned out to be 6.36%.
Turning to `CCc1cccc(NC(=O)NC2CCCCC2)c1`, the “hERG current change (%, negative = inhibition) at 1uM” value was 17.7%.
For `Fc1ccc(C2CC(c3ccco3)=Nc3ccccc3S2)cc1` (stereo not drawn) the value was 6.59%; for `CCNC(=O)NC(=O)C(C)OC(=O)Cc1coc2cc3c(cc12)CCC3` (stereo not drawn), 4.16%.
With `CC(NC(=O)C1CCN(C(=O)[C@@H]2Cc3ccccc3CN2)CC1)c1ccccc1` (stereo partly drawn), the “hERG current change (%, negative = inhibition) at 1uM” value is -2.44%.
With `CC(/C=C/c1ccc2c(c1)OCO2)=N/NC(=O)CNc1ccc(C)cc1`, the “hERG current change (%, negative = inhibition) at 1uM” value was determined as 15.7%.
Turning to `O=C(CSc1n[nH]c(Cc2ccccc2)n1)Nc1ccccc1Br`, the “hERG current change (%, negative = inhibition) at 1uM” value is listed as 3.87%.
The figure for `Cc1ccc(SCC(=O)N(Cc2nc(-c3ccccc3)no2)C(C)C)cc1` is 14%.
`NS(=O)(=O)c1cccc(NC(=O)CC(NC(=O)c2ccccc2Cl)c2ccccc2)c1` (stereo not drawn): the “hERG current change (%, negative = inhibition) at 1uM” value came to 11.4%.
The figure for `CN(C)c1ccc(CN(C(=O)/C=C/c2ccco2)C2CCS(=O)(=O)C2)cc1` (stereo not drawn) is 11.7%; for `COc1cc(-c2nc3ccccn3c2/N=C/c2cccc(F)c2)ccc1O` it is 8.25%; for `CSc1ccccc1NC(=O)COC(=O)c1ccc(O)cc1` it is -1.15%.
As for `O=C(CN1CCc2ccccc2C1)c1cccs1.O=C(O)C(=O)O`, the “hERG current change (%, negative = inhibition) at 1uM” value stood at 9.94%.
On to `CCn1ncc([N+](=O)[O-])c1C(=O)n1nc(C)cc1C`, for which the “hERG current change (%, negative = inhibition) at 1uM” value came to 4.35%.
The figure for `O=C(O)C1CC1C(=O)Nc1nc2c(Cl)cccc2s1` (stereo not drawn) is 16.2%.
The figure for `O=C(C1CCCCN1S(=O)(=O)c1ccc(F)cc1)N1CCN(c2ccccc2F)CC1` (stereo not drawn) is 4.51%; for `Cc1ccc2c(c1)CC1(CN2C)C(=O)NC(=O)N(c2ccccc2C)C1=O` (stereo not drawn) it is 5.48%.
The figure for `O=C(Cc1cccs1)N1CCC2(CC1)OCCO2` is -1.87%.
Take `CCc1nnc(NC(=O)c2cccc(S(=O)(=O)N3CCN(c4ccccc4)CC3)c2)s1`: the “hERG current change (%, negative = inhibition) at 1uM” value amounted to 13.1%.
Consider `CCC(=O)N1CCc2cc(S(=O)(=O)NC(Cc3ccccc3)C(=O)NC3CCCCC3C)ccc21` (stereo not drawn), for which the “hERG current change (%, negative = inhibition) at 1uM” value came out at 0.125%.
The figure for `CC(NC(=O)COC(=O)CSc1ccc(F)cc1)c1ccc(F)cc1` (stereo not drawn) is 11.6%; for `Cc1ccc(NC(=O)CNC(=O)c2ccc3c(c2)OCO3)nc1` it is 7.61%; for `O=S(=O)(NCCc1ccncc1)c1ccccc1` it is 9.02%.
On to `CC1CCN(C(=O)C(=O)Nc2sc3c(c2C(N)=O)CC(C)(C)OC3)CC1`, for which the “hERG current change (%, negative = inhibition) at 1uM” value was 13.4%.
For `CCc1nnc(NC(=O)c2ccc(S(=O)(=O)N3CCc4ccccc4C3)cc2)s1` the value was 10.8%; for `Cc1cc(-c2n[nH]c(=S)n2/N=C/c2cccc(O)c2)n[nH]1`, 19.8%; for `CCC(=O)Nc1ccc(CCC(=O)N2CCCC2)cc1`, 15.5%.
For `CCOC(=O)N=Nc1c(O)n(Cc2ccccc2)c2ccccc12` the value was 12.8%.
For `CCC(=O)Nc1ccc(Br)c(Cl)c1`, the “hERG current change (%, negative = inhibition) at 1uM” value worked out at 13.7%.
The figure for `COc1ccccc1C(=O)NCCC(=O)NCC(c1ccc(F)cc1)N1CCOCC1` (stereo not drawn) is 6.98%; for `CCOC(=O)c1c(NC(=O)CN2C(=O)c3ccccc3C2=O)sc(Cc2ccc3c(c2)OCO3)c1C` it is 5.18%.
In the case of `COc1ccc(C(=O)c2coc3c2C(=O)C(=O)c2ccccc2-3)cc1`, the “hERG current change (%, negative = inhibition) at 1uM” value came out at 11.1%.
Regarding `CC(C)c1ccc(C2C3CSCC=C3C(C#N)=C(N)C2(C#N)C#N)cc1` (stereo not drawn), the “hERG current change (%, negative = inhibition) at 1uM” value was found to be 2.72%.
For `CC(C)C(=O)NNc1ccc(C(F)(F)F)cn1` the value was 20.8%.
`CC1(c2ccccc2)CC(C)(C)n2c(O)c(C3=NC(=S)NC3=O)c3cccc1c32` (stereo not drawn): the “hERG current change (%, negative = inhibition) at 1uM” value stood at 7.91%.
On to `CCN(CC)C(=O)c1ccccc1NS(=O)(=O)c1cccs1`, for which the “hERG current change (%, negative = inhibition) at 1uM” value is on record as -1.45%.
The figure for `Cc1ccc(S(=O)(=O)Nc2ccc3oc(=O)sc3c2)c(C)c1` is 7.97%.
Consider `Cc1ccccc1CC(=O)Nc1ccc2c(c1)CCC2`, for which the “hERG current change (%, negative = inhibition) at 1uM” value is reported as 16.2%.
Consider `O=C(O)CCNc1ccc(NCCC(=O)O)c2c1C(=O)c1ccccc1C2=O`, for which the “hERG current change (%, negative = inhibition) at 1uM” value is 12.1%.
For `Nc1cc(OC(=O)c2cccs2)nn1S(=O)(=O)c1ccc(F)cc1` the value was -2.66%; for `Cc1ccc2nc(N(CCCN(C)C)C(=O)c3ccc4c(c3)CCCC4)sc2c1.Cl`, 8.94%.
For `COC(=O)c1ccccc1NC(=O)C(=O)NCC1CCCO1` (stereo not drawn) the value was 13.6%.
For `COc1ccc(C(=O)NC2CCSc3ccccc32)cc1S(=O)(=O)N1CCOCC1` (stereo not drawn) the value was 5.37%; for `CCOc1ccc(S(=O)(=O)NCC2CCCO2)cc1NC(=O)c1ccccc1F` (stereo not drawn), 15.1%.
As for `O=C(NCC1CC1)c1onc(CSc2ccc(F)c(F)c2)c1C(=O)NCC1CC1`, the “hERG current change (%, negative = inhibition) at 1uM” value was 10.6%.
For `CNC(=O)NC(=O)COC(=O)CCCSc1nc2ccccc2s1` the value was 14.6%.
With `CC(=O)OC(C)CS(=O)(=O)c1ccccc1` (stereo not drawn), the “hERG current change (%, negative = inhibition) at 1uM” value was found to be 15.2%.
On to `CC1CCCC(NC(=O)COC(=O)c2ccc3ccccc3n2)C1C` (stereo not drawn), for which the “hERG current change (%, negative = inhibition) at 1uM” value is -0.662%.
Consider `CCOC(=O)N1CCC(N(CCN(C)C)C(=S)Nc2cccc(Cl)c2C)CC1`, for which the “hERG current change (%, negative = inhibition) at 1uM” value was found to be 14.3%.
Turning to `COc1ccccc1N/C=C(\C#N)c1nc2ccccc2[nH]1`, the “hERG current change (%, negative = inhibition) at 1uM” value is -7.19%.
On to `O=C1N=C(N2CCOCC2)S/C1=C\c1cccnc1`, for which the “hERG current change (%, negative = inhibition) at 1uM” value is 10%.
The figure for `COc1ccc(OC)c(NC(=O)CSc2nc3scc(C)c3c(=O)[nH]2)c1` is 17.4%; for `Cn1ccnc1SC(C(=O)O)c1ccccc1` (stereo not drawn) it is 14.9%.
As to `Cc1ccc(-c2ccc(=O)n(CC(=O)NCCCN3CCCCC3C)n2)cc1` (stereo not drawn), the “hERG current change (%, negative = inhibition) at 1uM” value is recorded as -4.56%.
The figure for `CN(C)CCCC1(O)c2ccccc2C=Cc2ccccc21` is 8.67%.
For `COc1ccc(C2NS(=O)(=O)OCC2C)cc1` (stereo not drawn), the “hERG current change (%, negative = inhibition) at 1uM” value came to 13.4%.
The figure for `O=C1NC2(CCC3(CC2)OCCO3)NN1c1ccc(Cl)cc1` is 2.21%.
For `Cc1cccc(NC(=O)CN2CCCN(S(=O)(=O)c3ccc(Br)s3)CC2)c1` the value was 9.64%.
Consider `Cc1ccc(NC(=O)COC(=O)CCc2nc3ccccc3n2-c2ccccc2)c(C)c1`, for which the “hERG current change (%, negative = inhibition) at 1uM” value is listed as 11.2%.
Consider `C/C(=N\NC(=O)c1nnn(-c2nonc2N)c1-c1ccccc1)c1ccco1`, for which the “hERG current change (%, negative = inhibition) at 1uM” value is listed as 16.3%.
The figure for `Cc1cccc(OCC(=O)NCCNC(=O)c2cccnc2)c1` is 16.4%; for `Cc1cc(C)cc(N(CC(=O)NCc2ccc(F)cc2)C(=O)c2snc(C(N)=O)c2N)c1` it is 13.8%.
Regarding `Cn1c(=O)c2c(ncn2CC(=O)Nc2ccccc2Sc2ccccc2)n(C)c1=O`, the “hERG current change (%, negative = inhibition) at 1uM” value is recorded as -0.764%.
For `Cc1ccc(NC(=O)C2CCCN2C(=O)NC2CCCCC2)c(C)c1` (stereo not drawn) the value was 9.71%.
